PubChem BioAssay AID662 (National Center for Advancing Translational Sciences (NCATS), 2007)
About 1,800 (2.5%) of roughly 71,000 compounds were called active. This list was built around the results that the source calls inconclusive (neither active nor inactive); the mix of calls is not that of the screen. Calls follow the shape of the dose curve; as a rule, active = well fitted activation curve with a large enough effect in the signal ratio, with a control signal flat (not every such curve was filed as active); inconclusive = small, poorly fitted or top-dose-only effect, or effect the other way, or a change in a side signal; inactive = flat fitted curve, though single readings scatter; the % refers to the signal ratio. A potency beside an inconclusive call is a rough fit, not a confirmed value.

Test: Cell signaling CRE-BLA (Fsk stim); as to activity change, negative = inhibition: % of control where 0% means no effect
Details: CHO CRE-bla reporter (cAMP response element driving beta-lactamase), forskolin EC10, beta-lactamase ratio; activity change, negative = inhibition: at 38.2 µM (top of the series) unless noted
In short: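 Forskolin analogue NKH 477 at EC10 stimulated CRE-driven beta-lactamase in CHO cells alongside compound dilution series. Beta-lactamase was measured with CCF4, excitation 405 nm, emission ratio 460/530 nm.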
Potency is read from the fitted curve at half-maximal effect; tags tell the direction and shape of the fitted curve.

Row | Compound | Potency | activity change, negative = inhibition
1 | COc1cccc2[nH]c3c(N4CCCCC4)ncnc3c12 | inconclusive: 10 µM [rising, partial curve] | 
2 | O=[N+]([O-])c1ccc(Cl)cc1Cl |  | inactive: -8.73%
3 | COc1ccc(-c2cc(=O)n(-c3nc4ccccc4[nH]3)[nH]2)cc1 | inconclusive: 0.0316 µM [rising, full curve, poor fit] | 
4 | CN(C)c1ncnc2ccc(-c3ccc4c(c3)OCO4)cc12 | inconclusive: 1.58 µM [rising, full curve, poor fit] | 
5 | Cc1nc2[nH]c(=O)c3c(n2n1)NC1=C(C(=O)CC(C)(C)C1)C3c1ccc(F)cc1 (stereo not drawn) |  | inconclusive: 26.1%
6 | CCOCC(=O)Nc1sc2c(c1C(=O)OCC)CCCC2 | active: 10 µM | 
7 | CCOC(=O)c1c(C)oc2cc(Br)c(OC(C)C(=O)OCC)cc12 (stereo not drawn) | inconclusive: 15.8 µM [rising, single point] | 
8 | CCCCN(C(=O)c1ccco1)c1nnc(-c2cc(OC)c(OC)c(OC)c2)s1 |  | inconclusive: 28.9%
9 | O=C(O)CCCc1nc(-c2ccccc2)no1 |  | inconclusive: -14.7%
10 | CC(=O)c1cc2c(cc1NC(=O)CN1CCN(c3cccc(C(F)(F)F)c3)CC1)OCO2 |  | inactive: 6.16%
11 | CCS(=O)(=O)N1CCC(C(=O)N2CCOCC2)CC1 |  | inconclusive: -12%
12 | Cc1cnn(-c2ccc3nnc(-c4ccc(Br)cc4)n3n2)c1 |  | inconclusive: 27.9%
13 | CS(=O)(=O)Nc1cccc(-c2nc(Nc3ccccc3)c3ccccc3n2)c1 |  | inconclusive: 29.9%
14 | COc1ccc(CN2CCN(S(=O)(=O)c3ccc(F)cc3)CC2)cc1OC | inconclusive: 15.8 µM [rising, partial curve] | 
15 | CC[C@H](Cc1c(I)cc(I)c(N)c1I)C(=O)O |  | inactive: 9.8% [at 17.1 µM]
16 | CCCc1cc(C(=O)Nc2sc(C(C)=O)c(C)c2C(=O)OCC)no1 | active: 0.631 µM | 
17 | Cc1cc(NCCN2CCCCC2)n2c(nc3ccccc32)c1C#N |  | inactive: 9.94%
18 | CC(C)CN1CN(S(=O)(=O)c2cccs2)c2nc3ccccc3nc21 | inconclusive: 1.26 µM [rising, partial curve] | 
19 | CCOC(=O)CNC(=O)CSc1ncnc2c1cnn2-c1ccccc1 |  | inactive: -2.76%
20 | Cc1nc(NCc2ccco2)nc2c1C(=O)CC(C)C2 (stereo not drawn) | inconclusive: 10 µM [rising, single point] | 
21 | CCC(C)(C)n1nnnc1C(c1cc2cc(C)ccc2[nH]c1=O)N1CCCC1 (stereo not drawn) | inconclusive: 2 µM [falling, partial curve] | 

Row | Compound | Potency | activity change, negative = inhibition
22 | CCn1c(=O)n(CC)c2cc(S(=O)(=O)N3CCC(c4ccccc4)CC3)ccc21 |  | inconclusive: 14.1%
23 | CCCc1nnc(NC(=O)Cn2c(=O)oc3ccccc32)s1 |  | inactive: -2.31%
24 | C=C(C)Cn1c(SCC#N)nc2ccccc2c1=O | active: 10 µM | 
25 | O=C(Nc1nccs1)c1cc(S(=O)(=O)N2CCOCC2)ccc1Cl |  | inactive: -0.651%
26 | O=C(NCc1cccs1)C(NS(=O)(=O)c1cccc2nsnc12)c1ccccc1 (stereo not drawn) |  | inconclusive: -0.886%
27 | CCOC(=O)CSC1=C(C#N)C(c2sccc2C)CC(=O)N1 (stereo not drawn) | inconclusive: 15.8 µM [rising, partial curve] | 
28 | CC(=O)CSc1ncnc2c1oc1ccccc12 | active: 3.98 µM | 
29 | CCOc1cc2[nH]c(=O)n(CC3CCC(C(=O)NC4CCCCC4)CC3)c(=O)c2cc1OCC (stereo not drawn) |  | inconclusive: -22.4%
30 | COc1ccc(CCNC(=O)CSc2nc(N)c(C#N)c(-c3cccs3)c2C#N)cc1OC | inconclusive: 10 µM [rising, partial curve] | 
31 | CCN(CC(=O)Nc1ccc2c(c1)OCCO2)Cc1cc(=O)oc2c(C)c(C)ccc12 | inconclusive: 15.8 µM [rising, single point] | 
32 | Cc1cccc(NC(=O)c2sc3nc(-c4ccc(F)cc4)cn3c2C)n1 | inconclusive: 10 µM [rising, partial curve] | 
33 | COC(=O)CC1=Nc2ccccc2NC(=O)C1 |  | inactive: 2.84%
34 | CC1CN(S(=O)(=O)c2ccc(NC(=O)CCN3C(=O)c4ccccc4C3=O)cc2)CC(C)O1 (stereo not drawn) |  | inconclusive: -1.77%
35 | O=C(O)c1ccc(C(=O)O)c(C(=O)O)c1.[NH-][C@@H]1CCCC[C@@H]1[NH-].[Pt] |  | inactive: 14.8% [at 7.6 µM]
36 | COc1ccccc1-c1c(C)oc2cc(OC(=O)c3ccco3)ccc2c1=O |  | inactive: -14.7%
37 | COc1ccc(NC(=O)CN2CCC(C(N)=O)CC2)cc1 |  | inconclusive: -6.83%
38 | COC(=O)C1=C(C)N(c2ccc(F)c(Cl)c2)C(=O)C1 |  | inconclusive: -27.3%
39 | Cc1cccc2cc3c(NC(=O)c4ccccn4)nn(C)c3nc12 |  | inconclusive: 7.59%
40 | N#Cc1c(N)n(CCCN2CCOCC2)c2nc3ccccc3nc12 | active: 12.6 µM | 
41 | COC(=O)[C@@]1(Cc2ccccc2)[C@H]2c3cc(C(=O)N4CCCC4)n(Cc4ccc(C(F)(F)F)nc4)c3C[C@H]2CN1C(=O)c1ccccc1 |  | inconclusive: 1.75%
42 | Cc1cc(=O)oc2n[nH]c(-c3ccccc3)c12 | inconclusive: 10 µM [rising, single point] | 

Row | Compound | Potency | activity change, negative = inhibition
43 | O=C(CSc1nnnn1-c1cccnc1)NCc1cccs1 |  | inconclusive: -9.22%
44 | COC(=O)c1c(-c2ccccc2)csc1NC(=O)c1ccco1 | inconclusive: 2 µM [rising, partial curve] | 
45 | COc1cc(OC)c(C(=O)NC2CCCCCC2)cc1OC | inconclusive: 12.6 µM [rising, single point] | 
46 | CCOC(=O)c1cc2c(=O)n3ccccc3nc2n(CCCOC)c1=NC(C)=O | inconclusive: 12.6 µM [rising, partial curve] | 
47 | Cc1noc(C)c1-c1ccc2ncnc(N(C)C)c2c1 | inconclusive: 12.6 µM [rising, single point] | 
48 | CCC(Sc1nc(=O)cc(N)n1-c1cccc(C)c1)C(=O)Nc1cc(C)on1 (stereo not drawn) |  | inconclusive: 7.26% [cytotoxic]
49 | CCOC(=O)N1CCC(N2Cc3cccc(C(=O)NCc4ccccc4OC)c3C2=O)CC1 |  | inconclusive: -10.7%
50 | O=c1c(CCc2ccccc2)nc2cnc(N3CCOCC3)nc2n1-c1ccccc1 | active: 7.94 µM | 
51 | CC(C)=CC(=O)OCC(=O)Nc1nc(C)c(Cl)cc1Cl |  | inconclusive: -6.25%
52 | CCn1c(=O)c(C(=O)NCCCO)c(O)c2ccccc21 | active: 10 µM | 
53 | CCOC(=O)CSc1cc(=O)n(C)c2cc(Cl)ccc12 |  | inactive: 9.83%
54 | COC(=O)CSc1nnc(CNC(=O)c2ccccc2OC)n1-c1ccc(OC)cc1 |  | inconclusive: 19.6%
55 | COC(=O)c1[nH]c2ccccc2c1NC(=O)CN1CCN(c2cccc(Cl)c2)CC1 | inconclusive: 25.1 µM [rising, single point] | 
56 | CC(=O)c1cc(C#N)c(SCCC(C)C)nc1C |  | inconclusive: 8.8%
57 | CC(=O)N(C)c1ccc(OCC(O)COc2ccc(N(C)C(C)=O)cc2)cc1 |  | inactive: -1.25%
58 | CC(NC(=O)C1C(=O)N(CCO)C2(C)CC1c1ccccc1O2)c1ccccc1 (stereo not drawn) |  | inconclusive: 3.49%
59 | COc1ccc(C(=O)NCC2OCCc3ccccc32)c(O)c1 (stereo not drawn) |  | inconclusive: 19.9%
60 | CCOc1ccc(C(=O)Nc2c3c(nn2-c2ccc(C)cc2)CS(=O)C3)cc1OCC (stereo not drawn) | inconclusive: 12.6 µM [rising, single point] | 
61 | Cc1ccc(Cl)cc1N1CCN(C(=O)C2CCN(S(=O)(=O)c3cccnc3)CC2)CC1 |  | inconclusive: 2.56%
62 | Cc1ccc(Cl)cc1N1CCN(C(c2ccc(C#N)cc2)c2nnnn2C2CCCC2)CC1 (stereo not drawn) |  | inactive: 5.6%
63 | CCOCCCNC(=O)c1cc2c(-c3ccc(Cl)cc3)nn(C)c2s1 | active: 2 µM | 

Row | Compound | Potency | activity change, negative = inhibition
64 | O=C(C1CCCN1S(=O)(=O)c1cccc2cccnc12)N1CCc2ccccc2C1 (stereo not drawn) |  | inactive: -6.56%
65 | CCSc1nnc(-c2ccc(S(=O)(=O)N3CCOCC3)cc2)n1CC1CCCO1 (stereo not drawn) |  | inactive: 0.176%
66 | Nc1nnc(C(=O)c2ccccc2N)s1 | inconclusive: 0.0631 µM [falling, full curve, poor fit] | 
67 | Cc1ccnc2nc(C(=O)OCCOc3cccc(Br)c3)nn12 |  | inconclusive: 26.5%
68 | COC(=O)CNc1nc(-c2ccncc2)nc2ccccc12 | active: 12.6 µM | 
69 | COc1ccc(-c2noc(-c3ccccc3-c3ccccc3)n2)cc1OC | active: 7.94 µM | 
70 | COc1ccc(N2CCN(C(=O)c3ccc(NS(=O)(=O)c4ccccc4)cc3)CC2)cc1 |  | inactive: 1.34%
71 | CC(C)N1C(=O)C2C(C(=O)NCc3ccccc3)C3C=CC2(O3)C1C(=O)NC(C)(C)C (stereo not drawn) |  | inconclusive: -6.01%
72 | CCOCCc1nnc(NC(=O)c2cc(OC)c(OC)c(OC)c2)s1 | active: 10 µM | 
73 | CCOC(=O)c1ccccc1N/C=C1\CCCC1=O | active: 10 µM | 
74 | Cn1cc(C(=O)NCCN2CCN(c3ccccc3F)CC2)c2c3ccccc3n(C)c2c1=O |  | inconclusive: 25.2%
75 | CN1CC[C@@]2(CCN3CCc4c(oc5ccccc45)[C@@H]3C2)N(C)C1=O |  | inactive: -5.49%
76 | COC(=O)CC(=O)CSc1nc2c(cc1C#N)CCC2 |  | inactive: 9.35%
77 | CN1CCN(c2nc3c(c(=O)n(C)c(=O)n3C)n2C)CC1 |  | inactive: 8.95% [at 7.6 µM]
78 | CCCCNC(=O)c1cc2c(=O)n3cccc(C)c3nc2n(Cc2ccccc2)c1=N | active: 2.51 µM | 
79 | CCOC(=O)CC(=O)CSc1ccc2nnc(-c3cccc(F)c3)n2n1 | inconclusive: 10 µM [rising, partial curve] | 
80 | Cc1ccc(CNC(=O)C2C3C=CC(C3)C2C(=O)O)cc1 (stereo not drawn) |  | inactive: -1.15%
81 | CCn1cnc2cc(NCc3cccc(OC)c3O)ccc21 |  | inactive: 13.2%
82 | COc1ccccc1OCc1ccc(C(=O)N2CCN3CCCC3C2)cc1 (stereo not drawn) |  | inconclusive: -17.3%
83 | CSc1cccc(NC(=O)OC2CCCCCCCCCCC2)c1 | inconclusive: 1 µM [falling, single point] | 
